Data as given in the CheMixHub ionic liquid set.
± gives the uncertainty stated by the source. Further values from the same series stand in other lists.

Experiment: xn = mol fraction of the nth substance listed
Settings: 328.15 K, 100.3 kPa

viscosity (x1 = 0.00302) [mPa·s] | viscosity (x1 = 0.005081) [mPa·s] | viscosity (x1 = 0.006922) [mPa·s] | viscosity (x1 = 0.009062) [mPa·s] | viscosity (x1 = 0.01107) [mPa·s] | viscosity (x1 = 0.01292) [mPa·s] | viscosity (x1 = 0.0148) [mPa·s] | viscosity (x1 = 0.01797) [mPa·s] | viscosity (x1 = 0.003004) [mPa·s] | viscosity (x1 = 0.004999) [mPa·s] | viscosity (x1 = 0.007004) [mPa·s] | viscosity (x1 = 0.008999) [mPa·s] | viscosity (x1 = 0.011) [mPa·s] | viscosity (x1 = 0.01301) [mPa·s] | viscosity (x1 = 0.015) [mPa·s] | viscosity (x1 = 0.01799) [mPa·s] | SMILES
0.58 ± 0.015 | 0.625 ± 0.015 | 0.672 ± 0.015 | 0.716 ± 0.015 | 0.763 ± 0.015 | 0.807 ± 0.015 | 0.85 ± 0.015 | 0.911 ± 0.015 |  |  |  |  |  |  |  |  | CCCCC[n+]1ccn(C)c1.C[C@H](N)C(=O)[O-] + O
 |  |  |  |  |  |  |  | 0.58 ± 0.016 | 0.625 ± 0.016 | 0.673 ± 0.016 | 0.717 ± 0.016 | 0.764 ± 0.016 | 0.807 ± 0.016 | 0.851 ± 0.016 | 0.912 ± 0.016 | CCC[n+]1ccn(C)c1.C[C@H](N)C(=O)[O-] + O
